Data: the supplement of paper PMC8728848
The other results are listed elsewhere or left out.

What was measured:
Assay in all cases: glycan array binding signal (z-score within array); higher = stronger binding
Settings in all cases: glycan notation: IUPAC condensed, linker removed
[1] = biological target: Gal(b1-4)GlcNAc(b1-3)Gal(b1-4)GlcNAc(b1-3)Gal(b1-4)GlcNAc(b1-3)Gal(b1-4)GlcNAc(b1-2)Man(a1-3)[Gal(b1-4)GlcNAc(b1-3)Gal(b1-4)GlcNAc(b1-3)Gal(b1-4)GlcNAc(b1-3)Gal(b1-4)GlcNAc(b1-2)Man(a1-6)]Man(b1-4)GlcNAc(b1-4)[Fuc(a1-6)]GlcNAc
Method in brief: (§1)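 The binding signal is a Z-score computed within each array. Data were drawn from 3228 arrays in the Consortium for Functional Glycomics database, restricted to those with a known protein sequence. Scores were averaged over arrays of the same protein sequence at different concentrations or buffers, and over linkers, and negative values can be taken as non-binding.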

[2] = biological target: Gal(b1-4)GlcNAc(b1-3)Gal(b1-4)GlcNAc(b1-3)Gal(b1-4)GlcNAc(b1-3)Gal(b1-4)GlcNAc(b1-2)[Gal(b1-4)GlcNAc(b1-3)Gal(b1-4)GlcNAc(b1-3)Gal(b1-4)GlcNAc(b1-3)Gal(b1-4)GlcNAc(b1-6)]Man(a1-6)[Gal(b1-4)GlcNAc(b1-3)Gal(b1-4)GlcNAc(b1-3)Gal(b1-4)GlcNAc(b1-3)Gal(b1-4)GlcNAc(b1-2)Man(a1-3)]Man(b1-4)GlcNAc(b1-4)[Fuc(a1-6)]GlcNAc
Method in brief: as §1

[3] = biological target: Gal(b1-4)GlcNAc(b1-3)Gal(b1-4)GlcNAc(b1-3)Gal(b1-4)GlcNAc(b1-3)Gal(b1-4)GlcNAc(b1-3)Gal(b1-4)GlcNAc(b1-2)Man(a1-3)[Gal(b1-4)GlcNAc(b1-3)Gal(b1-4)GlcNAc(b1-3)Gal(b1-4)GlcNAc(b1-3)Gal(b1-4)GlcNAc(b1-3)Gal(b1-4)GlcNAc(b1-2)Man(a1-6)]Man(b1-4)GlcNAc(b1-4)GlcNAc
Method in brief: as §1

[4] = biological target: Gal(b1-4)GlcNAc(b1-3)Gal(b1-4)GlcNAc(b1-3)Gal(b1-4)GlcNAc(b1-3)Gal(b1-4)GlcNAc(b1-3)Gal(b1-4)GlcNAc(b1-2)Man(a1-3)[Gal(b1-4)GlcNAc(b1-3)Gal(b1-4)GlcNAc(b1-3)Gal(b1-4)GlcNAc(b1-3)Gal(b1-4)GlcNAc(b1-3)Gal(b1-4)GlcNAc(b1-2)Man(a1-6)]Man(b1-4)GlcNAc(b1-4)[Fuc(a1-6)]GlcNAc
Method in brief: as §1

[5] = biological target: Gal(b1-4)GlcNAc(b1-3)Gal(b1-4)GlcNAc(b1-3)Gal(b1-4)GlcNAc(b1-3)Gal(b1-4)GlcNAc(b1-3)Gal(b1-4)GlcNAc(b1-2)[Gal(b1-4)GlcNAc(b1-3)Gal(b1-4)GlcNAc(b1-3)Gal(b1-4)GlcNAc(b1-3)Gal(b1-4)GlcNAc(b1-3)Gal(b1-4)GlcNAc(b1-6)]Man(a1-6)[Gal(b1-4)GlcNAc(b1-3)Gal(b1-4)GlcNAc(b1-3)Gal(b1-4)GlcNAc(b1-3)Gal(b1-4)GlcNAc(b1-3)Gal(b1-4)GlcNAc(b1-2)Man(a1-3)]Man(b1-4)GlcNAc(b1-4)[Fuc(a1-6)]GlcNAc
Method in brief: as §1

[6] = biological target: Gal(b1-4)GlcNAc(b1-3)Gal(b1-4)GlcNAc(b1-3)Gal(b1-4)GlcNAc(b1-3)Gal(b1-4)GlcNAc(b1-3)Gal(b1-4)GlcNAc(b1-3)Gal(b1-4)GlcNAc(b1-2)Man(a1-3)[Gal(b1-4)GlcNAc(b1-3)Gal(b1-4)GlcNAc(b1-3)Gal(b1-4)GlcNAc(b1-3)Gal(b1-4)GlcNAc(b1-3)Gal(b1-4)GlcNAc(b1-3)Gal(b1-4)GlcNAc(b1-2)Man(a1-6)]Man(b1-4)GlcNAc(b1-4)GlcNAc
Method in brief: as §1

[7] = biological target: Gal(b1-4)GlcNAc(b1-3)Gal(b1-4)GlcNAc(b1-3)GalNAc
Method in brief: as §1

[8] = biological target: Gal(b1-4)GlcNAc(b1-3)Gal(b1-4)GlcNAc(b1-3)[Gal(b1-4)GlcNAc(b1-3)Gal(b1-4)GlcNAc(b1-6)]GalNAc
Method in brief: as §1

[9] = biological target: Gal(b1-4)GlcNAc(b1-3)Gal(b1-4)GlcNAc(b1-6)[Gal(b1-3)]GalNAc
Method in brief: as §1

[10] = biological target: Gal(b1-4)GlcNAc(b1-3)Gal(b1-4)[Fuc(a1-3)]GlcNAc(b1-3)Gal(b1-4)[Fuc(a1-3)]GlcNAc
Method in brief: as §1

[11] = biological target: Gal(b1-4)GlcNAc(b1-3)GalNAc
Method in brief: as §1

[12] = biological target: Gal(b1-4)GlcNAc(b1-3)[Fuc(a1-3)GlcNAc(b1-6)]Gal(b1-4)Glc
Method in brief: as §1

[13] = biological target: Gal(b1-4)GlcNAc(b1-3)[Gal(b1-4)GlcNAc(b1-6)]Gal(b1-4)GlcNAc
Method in brief: as §1

[14] = biological target: Gal(b1-4)GlcNAc(b1-3)[GlcNAc(b1-6)]Gal(b1-4)GlcNAc
Method in brief: as §1

[15] = biological target: Gal(b1-4)GlcNAc(b1-6)Gal(b1-4)GlcNAc
Method in brief: as §1

[16] = biological target: Gal(b1-4)GlcNAc(b1-6)GalNAc
Method in brief: as §1

[17] = biological target: Gal(b1-4)GlcNAc(b1-6)[Gal(b1-3)]GalNAc
Method in brief: as §1

[18] = biological target: Gal(b1-4)GlcNAc(b1-6)[Gal(b1-4)GlcNAc(b1-3)]GalNAc
Method in brief: as §1

Gal(b1-4)GlcNAc6P = biological target: Gal(b1-4)GlcNAc6P
Method in brief: as §1

Gal(b1-6)Gal = biological target: Gal(b1-6)Gal
Method in brief: as §1

Gal3S(b1-3)GalNAc = biological target: Gal3S(b1-3)GalNAc
Method in brief: as §1

Gal3S(b1-3)GlcNAc = biological target: Gal3S(b1-3)GlcNAc
Method in brief: as §1

[19] = biological target: Gal3S(b1-3)[Fuc(a1-4)]GlcNAc
Method in brief: as §1

Gal3S(b1-4)Glc = biological target: Gal3S(b1-4)Glc
Method in brief: as §1

Gal3S(b1-4)Glc6S = biological target: Gal3S(b1-4)Glc6S
Method in brief: as §1

Gal3S(b1-4)GlcNAc = biological target: Gal3S(b1-4)GlcNAc
Method in brief: as §1

[20] = biological target: Gal3S(b1-4)[Fuc(a1-3)]Glc6S
Method in brief: as §1

[21] = biological target: Gal3S(b1-4)[Fuc(a1-3)]GlcNAc
Method in brief: as §1

[22] = biological target: Gal3S(b1-4)[Fuc(a1-3)]GlcNAc6S
Method in brief: as §1

Gal3S4S(b1-4)GlcNAc = biological target: Gal3S4S(b1-4)GlcNAc
Method in brief: as §1

Gal3S6S(b1-4)GlcNAc = biological target: Gal3S6S(b1-4)GlcNAc
Method in brief: as §1

Gal3S6S(b1-4)GlcNAc6S = biological target: Gal3S6S(b1-4)GlcNAc6S
Method in brief: as §1

Gal4S(b1-4)GlcNAc = biological target: Gal4S(b1-4)GlcNAc
Method in brief: as §1

Gal4S6S(b1-4)GlcNAc = biological target: Gal4S6S(b1-4)GlcNAc
Method in brief: as §1

Gal6P(b1-4)GlcNAc = biological target: Gal6P(b1-4)GlcNAc
Method in brief: as §1

Gal6S(b1-3)GlcNAc = biological target: Gal6S(b1-3)GlcNAc
Method in brief: as §1

Gal6S(b1-3)GlcNAc6S = biological target: Gal6S(b1-3)GlcNAc6S
Method in brief: as §1

Gal6S(b1-4)Glc = biological target: Gal6S(b1-4)Glc
Method in brief: as §1

B1: GS7807H-bfa-490-18-490 (Bacteroides fragilis) (protein)
chain: GNLEEMNIDPDNATQTHPKLLLTQICMNAFKRGTDGMYATKKVIQADGESADQYYKWTRGSFGYYDNLRNVQKMGEEAERVNAPVYTALTKFFRAYYFYELTLRFGDIPYSQALKGEKEEIYTPEYDAQEDVFAGILQELREADEILANDASVIDGDIIYNGNSTQWRKLINSFRLKVLMTLSNHTTVGNINIASEFKNIATNSPLMNSLADNGQLVYLDQQGNRYPQFNAQWSGYYMDDTFIQRMRERRDPRLFIFSAQTNKGKTEGKPIDDFSSYEGGDPAAPYSDAIIKVSEGTISPINDRFRTDPIVEPTMLMGYAELQQILAEAVVRGWISGNAQTYYEKGIRASFSFYETHAKDYAGYLNENAVAQYLKEPLVDFTQASGTEEQIERIIMQKYLVTFYQGNWDSFYEQLRTGYPDFRRPAGTEIPKRWMYPQGEYDNNGTNVETAITRQFGAGNDKINQATWWQKKS
glycan array binding signal (z-score) [1]: 2.51 | glycan array binding signal (z-score) [2]: 2.08 | glycan array binding signal (z-score) [3]: 1.71 | glycan array binding signal (z-score) [4]: 2.17 | glycan array binding signal (z-score) [5]: 0.502 | glycan array binding signal (z-score) [6]: -0.165 | glycan array binding signal (z-score) [7]: -0.561 | glycan array binding signal (z-score) [8]: -0.095 | glycan array binding signal (z-score) [9]: -0.617 | glycan array binding signal (z-score) [10]: -0.649 | glycan array binding signal (z-score) [11]: -0.83 | glycan array binding signal (z-score) [12]: -0.56 | glycan array binding signal (z-score) [13]: 1.46 | glycan array binding signal (z-score) [14]: 1.12 | glycan array binding signal (z-score) [15]: -0.133 | glycan array binding signal (z-score) [16]: -0.182 | glycan array binding signal (z-score) [17]: -0.405 | glycan array binding signal (z-score) [18]: -0.385 | glycan array binding signal (z-score) (Gal(b1-4)GlcNAc6P): 0.452 | glycan array binding signal (z-score) (Gal(b1-6)Gal): -0.652 | glycan array binding signal (z-score) (Gal3S(b1-3)GalNAc): -0.596 | glycan array binding signal (z-score) (Gal3S(b1-3)GlcNAc): 0.043 | glycan array binding signal (z-score) [19]: 0.008 | glycan array binding signal (z-score) (Gal3S(b1-4)Glc): 1.21 | glycan array binding signal (z-score) (Gal3S(b1-4)Glc6S): -0.637 | glycan array binding signal (z-score) (Gal3S(b1-4)GlcNAc): 0.181 | glycan array binding signal (z-score) [20]: 0.47 | glycan array binding signal (z-score) [21]: 0.737 | glycan array binding signal (z-score) [22]: -0.198 | glycan array binding signal (z-score) (Gal3S4S(b1-4)GlcNAc): -0.441 | glycan array binding signal (z-score) (Gal3S6S(b1-4)GlcNAc): -0.178 | glycan array binding signal (z-score) (Gal3S6S(b1-4)GlcNAc6S): 0.21 | glycan array binding signal (z-score) (Gal4S(b1-4)GlcNAc): -0.642 | glycan array binding signal (z-score) (Gal4S6S(b1-4)GlcNAc): 0.142 | glycan array binding signal (z-score) (Gal6P(b1-4)GlcNAc): -0.329 | glycan array binding signal (z-score) (Gal6S(b1-3)GlcNAc): 0.653 | glycan array binding signal (z-score) (Gal6S(b1-3)GlcNAc6S): 1.52 | glycan array binding signal (z-score) (Gal6S(b1-4)Glc): 0.65
